{"source": "the supplement of paper PMC3334620", "note": "Over roughly 33,000 sequences, “E-score (-0.5 to 0.5)” has its median near -0.012; the highest 2% begin near 0.27. Some of the results follow.", "data": [{"target": "T1, Vhr1 (UniProt P40522)", "T1 sequence": "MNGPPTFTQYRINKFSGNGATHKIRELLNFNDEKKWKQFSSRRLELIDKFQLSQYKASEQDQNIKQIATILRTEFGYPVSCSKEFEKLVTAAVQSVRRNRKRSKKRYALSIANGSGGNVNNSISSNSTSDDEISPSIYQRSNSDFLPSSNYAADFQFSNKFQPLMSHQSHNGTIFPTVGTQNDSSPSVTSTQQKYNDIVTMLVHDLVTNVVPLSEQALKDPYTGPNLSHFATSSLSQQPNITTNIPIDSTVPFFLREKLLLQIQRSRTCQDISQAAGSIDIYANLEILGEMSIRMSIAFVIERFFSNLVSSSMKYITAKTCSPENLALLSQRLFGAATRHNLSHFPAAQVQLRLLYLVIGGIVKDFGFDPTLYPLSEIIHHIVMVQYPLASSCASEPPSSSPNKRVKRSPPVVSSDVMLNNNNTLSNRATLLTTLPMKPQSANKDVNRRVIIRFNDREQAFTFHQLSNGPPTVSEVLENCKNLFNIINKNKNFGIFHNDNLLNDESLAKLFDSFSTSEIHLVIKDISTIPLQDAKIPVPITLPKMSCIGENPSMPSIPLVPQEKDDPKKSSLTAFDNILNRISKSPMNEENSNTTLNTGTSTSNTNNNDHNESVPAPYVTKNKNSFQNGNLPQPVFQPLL", "assay": "PBM E-score (8-mer binding enrichment) (E-score (-0.5 to 0.5)); higher = stronger / more preferred TF binding; most listed sequences are background and not binding sites", "conditions": "protein concentration: 200 nM; construct: GST-full length", "summary_of_the_method": "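Full-length yeast transcription factors or their DNA-binding domains, GST-tagged and expressed with PURExpress, were applied at about 100-200 nM to universal all-10-mer Agilent arrays. These arrays had been made double-stranded by primer extension on fresh or once-stripped slides. Detection used fluorescent anti-GST, normalisation used masliner, and E-scores for ungapped eight-base words pooled with reverse complements came from the Universal PBM Analysis Suite.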", "values": [{"sequence": "CCAGCCTC", "PBM E-score": -0.104}, {"sequence": "CTTAAGAA", "PBM E-score": -0.116}, {"sequence": "GAGCCTGC", "PBM E-score": 0.0786}, {"sequence": "AAACGGAC", "PBM E-score": -0.129}, {"sequence": "TAAAGCCA", "PBM E-score": -0.0838}, {"sequence": "TCATGTCA", "PBM E-score": 0.0112}, {"sequence": "CCAAGTCC", "PBM E-score": -0.089}, {"sequence": "AAGGCGCC", "PBM E-score": 0.0449}, {"sequence": "CCAGTGAG", "PBM E-score": 0.127}, {"sequence": "CCTGTCCA", "PBM E-score": -0.219}, {"sequence": "AATCGTCC", "PBM E-score": 0.0027}, {"sequence": "CTAACATC", "PBM E-score": -0.00558}, {"sequence": "ACAAGGCT", "PBM E-score": -0.147}, {"sequence": "CCACCGCG", "PBM E-score": 0.131}, {"sequence": "TACGTCGA", "PBM E-score": 0.0188}, {"sequence": "TACTCCGA", "PBM E-score": 0.174}, {"sequence": "GGGGTTTA", "PBM E-score": -0.0399}, {"sequence": "ACCCTACT", "PBM E-score": -0.0281}, {"sequence": "AAGGGGCA", "PBM E-score": -0.253}, {"sequence": "ATTATGGA", "PBM E-score": 0.0765}, {"sequence": "AAATGGGT", "PBM E-score": -0.035}, {"sequence": "CTGATCTC", "PBM E-score": -0.0483}, {"sequence": "CAAATCTC", "PBM E-score": -0.0704}, {"sequence": "GCACAACC", "PBM E-score": 0.145}, {"sequence": "CAGTTGCC", "PBM E-score": -0.0707}, {"sequence": "CAAGCTGA", "PBM E-score": 0.14}, {"sequence": "CTTCCTTA", "PBM E-score": -0.126}, {"sequence": "CCCTGTGC", "PBM E-score": 0.0798}, {"sequence": "GATGTTGA", "PBM E-score": 0.0996}, {"sequence": "CCGGGGGA", "PBM E-score": 0.0547}, {"sequence": "AGACAGGA", "PBM E-score": 0.0608}, {"sequence": "GAGGCATC", "PBM E-score": -0.253}, {"sequence": "ATCGCTGC", "PBM E-score": -0.0116}, {"sequence": "ATGCAATG", "PBM E-score": 0.0959}, {"sequence": "GAAACGCC", "PBM E-score": -0.163}, {"sequence": "AGTTTCGG", "PBM E-score": -0.00726}, {"sequence": "TGCAGCAA", "PBM E-score": 0.114}, {"sequence": "CCCTCGGA", "PBM E-score": 0.0808}, {"sequence": "CAGGCCGA", "PBM E-score": 0.0296}, {"sequence": "ACAACGAT", "PBM E-score": 0.0372}, {"sequence": "CTTCTCAC", "PBM E-score": -0.148}, {"sequence": "CGACCCAG", "PBM E-score": 0.0508}, {"sequence": "AGCCGGCG", "PBM E-score": 0.0432}, {"sequence": "ACACGACA", "PBM E-score": 0.0664}, {"sequence": "TCCGTAAA", "PBM E-score": -0.156}, {"sequence": "GTAGAGCA", "PBM E-score": -0.167}, {"sequence": "ACTCTGGG", "PBM E-score": 0.0639}, {"sequence": "AGCGCTCG", "PBM E-score": -0.0722}, {"sequence": "CCTCGCAC", "PBM E-score": 0.0782}, {"sequence": "TCTGACCA", "PBM E-score": 0.0347}, {"sequence": "GCGGCGAC", "PBM E-score": 0.116}, {"sequence": "ACAACCAC", "PBM E-score": 0.246}, {"sequence": "CCACCGGA", "PBM E-score": 0.215}, {"sequence": "ATCATTGC", "PBM E-score": 0.159}, {"sequence": "ACATGGCT", "PBM E-score": 0.0966}, {"sequence": "ATGGATTA", "PBM E-score": -0.0563}, {"sequence": "CCTCATAA", "PBM E-score": -0.0654}, {"sequence": "AGTTGGTG", "PBM E-score": 0.0949}, {"sequence": "GAGAGATC", "PBM E-score": -0.0513}, {"sequence": "AATTGGGT", "PBM E-score": 0.149}, {"sequence": "TCGATGCA", "PBM E-score": 0.0113}, {"sequence": "AAATCGAC", "PBM E-score": -0.0335}, {"sequence": "AAACGCTC", "PBM E-score": -0.237}, {"sequence": "CGTAGCAC", "PBM E-score": -0.00284}, {"sequence": "ATCGCCCA", "PBM E-score": 0.0033}, {"sequence": "CTGACGTC", "PBM E-score": -0.0519}, {"sequence": "AGACAAGC", "PBM E-score": -0.182}, {"sequence": "CTTCGGAC", "PBM E-score": -0.073}, {"sequence": "TGATACCA", "PBM E-score": 0.0612}, {"sequence": "CGTAGGCA", "PBM E-score": -0.227}, {"sequence": "AATGGCTC", "PBM E-score": 0.137}, {"sequence": "CCACAATA", "PBM E-score": 0.167}, {"sequence": "CTAATTGA", "PBM E-score": -0.0104}, {"sequence": "GCAATCGC", "PBM E-score": -0.188}, {"sequence": "ATTGTCTA", "PBM E-score": 0.053}, {"sequence": "ATCTGATA", "PBM E-score": 0.0202}, {"sequence": "GCATACCC", "PBM E-score": 0.183}, {"sequence": "CTCTGCCA", "PBM E-score": -0.0556}, {"sequence": "CTCGGACA", "PBM E-score": -0.152}, {"sequence": "CCTAACTC", "PBM E-score": -0.0781}, {"sequence": "CAAACGTC", "PBM E-score": -0.137}, {"sequence": "GCTCGTTA", "PBM E-score": -0.073}, {"sequence": "ATAACAAC", "PBM E-score": 0.00638}, {"sequence": "ATATTAAC", "PBM E-score": 0.267}, {"sequence": "CGCGGTAG", "PBM E-score": 0.0442}, {"sequence": "GCTACAGA", "PBM E-score": -0.0376}]}]}
